# Experimental data as given in PubChem BioAssay AID1745853 (National Center for Advancing Translational Sciences (NCATS), 2022).
# The other results are listed elsewhere or left out. Shown are side measurements of this screen, not its main read-out; they come without a call.
# Legend:
# Assay in all cases: Primary Screen for Target Class Profiling of Small Molecule Inhibitors of Methyltransferases
# [1] = molecular target: Glycine N-methyltransferase (Homo sapiens) (UniProt Q14749); conditions: purified enzyme, MTase-Glo SAH luminescence; measured here: GNMT inhibition; at 40 µM; stronger effect = lower value
# Method in brief: (§1)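 Each enzyme was assayed with SAM and its substrate. SAH formation detected by MTase-Glo luminescence; single-point 40 uM screen[…].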
# [2] = molecular target: Guanidinoacetate N-methyltransferase (Homo sapiens) (UniProt Q14353); conditions: purified enzyme, MTase-Glo SAH luminescence; measured here: GAMT inhibition; at 40 µM; stronger effect = lower value
# Method in brief: as §1
# [3] = molecular target: Histamine N-methyltransferase (Homo sapiens) (UniProt P50135); conditions: purified enzyme, MTase-Glo SAH luminescence; measured here: HNMT inhibition; at 40 µM; stronger effect = lower value
# Method in brief: as §1
# [4] = molecular target: Nicotinamide N-methyltransferase (Homo sapiens) (UniProt P40261); conditions: purified enzyme, MTase-Glo SAH luminescence; measured here: NNMT inhibition; at 40 µM; stronger effect = lower value
# Method in brief: as §1
# [5] = molecular target: Phenylethanolamine N-methyltransferase (Homo sapiens) (UniProt P11086); conditions: purified enzyme, MTase-Glo SAH luminescence; measured here: PNMT inhibition; at 40 µM; stronger effect = lower value
# Method in brief: as §1
# On the % scale 0 is the no-effect control and ±100 the full control effect.
Structure (SMILES),"activity change, negative = inhibition [1] [%]","activity change, negative = inhibition [2] [%]","activity change, negative = inhibition [3] [%]","activity change, negative = inhibition [4] [%]","activity change, negative = inhibition [5] [%]"
C/C=C(/COC(=O)/C(C)=C/C)C(=O)OC(CC)c1ccc(OC)c(OC)c1 (stereo not given),-8.49,5.45,7.74,-12.7,-0.126
CC(=O)N1CCC([C@@H]2CN(Cc3ccc(C)s3)C[C@H]2CO)CC1,-1.36,-2.85,-3.24,-4.3,0.366
Cc1cccc(NC(=O)Cn2nc3n(C)c(=O)c4ccc(C(=O)NC5CCCCC5)cc4n3c2=O)c1,2.86,2.22,6.46,-1.54,1.42
CCOC(=O)c1ccc2c(c1)[C@@H]1C=CC[C@@H]1[C@H](c1ccc(C(=O)OC)cc1)N2,-10.9,-7.57,-8.34,-22.5,-9.57
COc1cccc(C2c3cccn3-c3sc4c(c3CN2C(=O)Nc2cc(F)ccc2F)CCCC4)c1 (stereo not given),1.52,0,-3.07,-1.73,4.46
C=Cc1cc2oc(-c3ccc(O)c(F)c3)nc2cc1O,-73.9,-36,-73,-44,-52.8
NS(=O)(=O)c1ccc(Nc2nc(OCC3CCCCC3)c3[nH]cnc3n2)cc1,-28.3,3.72,-44.2,-87.2,-11.9
CC(C)Cn1c(=O)c2ccc(C(=O)NC3CCCC3)cc2n2c(=O)[nH]nc12,-14.5,4.48,-6.49,-8.55,-12.7
COc1ccc(-c2cc3n(n2)CC(C)(C(=O)NCc2ccccc2OC)N(c2ccc(C)c(C)c2)C3=O)cc1 (stereo not given),6.54,3.72,6.37,3.79,-1.14
Cc1cnc(CN2CC3(CCCN(C(=O)c4ccc(C)s4)C3)CCC2=O)cn1 (stereo not given),-5.63,-6.17,-3,-13.1,-17
CN1C(=O)CCCCC1C(=O)NCC1CCCCC1 (stereo not given),-0.118,-1.07,2.9,0.268,1.24
COc1ccc(-c2nc(C)nc3c2CCC3)c2ccc(C)nc12,-4.03,0.307,2.56,-1.54,13.3
COCCNC(=O)C1CCC(=O)N1C1CCNCC1 (stereo not given),-0.088,1.51,3.09,-4.25,11.5
CCc1ccccc1NC(=O)N1CCn2c(C)ccc2C1CC (stereo not given),-1.07,0,-5.51,-6.63,-2.75
